In all, about 33,000 sequences were measured (“E-score (-0.5 to 0.5)”: median about -0.032, highest 2% from about 0.36 on). The list shows a part of the results.
Target: T1, Sko1 (UniProt Q02100)
T1 sequence: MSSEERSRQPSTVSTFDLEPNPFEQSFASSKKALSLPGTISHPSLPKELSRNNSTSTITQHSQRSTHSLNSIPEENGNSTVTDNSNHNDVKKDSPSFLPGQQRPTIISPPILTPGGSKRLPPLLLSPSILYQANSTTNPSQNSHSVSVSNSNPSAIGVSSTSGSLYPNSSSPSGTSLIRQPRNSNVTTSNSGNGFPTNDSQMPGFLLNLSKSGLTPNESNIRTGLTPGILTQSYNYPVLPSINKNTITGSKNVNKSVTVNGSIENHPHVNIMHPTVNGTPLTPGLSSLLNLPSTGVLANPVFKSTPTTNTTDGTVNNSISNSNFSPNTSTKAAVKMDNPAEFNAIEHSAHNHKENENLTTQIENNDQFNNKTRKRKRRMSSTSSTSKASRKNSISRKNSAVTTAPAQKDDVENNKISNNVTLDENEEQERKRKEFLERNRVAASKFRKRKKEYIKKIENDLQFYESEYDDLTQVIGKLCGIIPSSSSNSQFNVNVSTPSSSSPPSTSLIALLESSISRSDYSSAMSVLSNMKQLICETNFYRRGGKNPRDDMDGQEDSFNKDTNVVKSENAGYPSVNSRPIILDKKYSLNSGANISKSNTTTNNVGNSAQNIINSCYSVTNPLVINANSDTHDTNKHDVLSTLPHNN
Test: PBM E-score (8-mer binding enrichment) (E-score (-0.5 to 0.5)); higher = stronger / more preferred TF binding; most listed sequences are background and not binding sites
Conditions: protein concentration: 200 nM; construct: GST-full length
Procedure, shortened: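 Masliner-normalised scans of fluorescent anti-GST signal were the basis for scoring. That signal came from GST-tagged yeast transcription factors applied at about 100-200 nM to double-stranded universal all-10-mer Agilent arrays on fresh or once-stripped slides. Each ungapped eight-base word, pooled with its reverse complement, received an E-score from the Universal PBM Analysis Suite.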

Sequence	PBM E-score
GAAGTCCA	-0.287
GCATTTAA	0.148
CCATCGCG	0.0763
CCGAGCAC	-0.0702
AGAAGGCA	-0.0924
AGTACGCC	0.0522
ACGGTCTC	-0.297
CACATCAG	-0.0833
GGGTAGTA	-0.129
ATTAGTCG	0.0159
ACTCCCTA	0.264
CGGCTTAG	-0.161
CCTAACAC	0.145
AAACTTCT	0.105
GGCAAGCC	-0.202
AAGGACAA	-0.0445
AATTTGTG	0.133
AACGCACT	0.236
CTGGGACA	-0.266
CCGGCTAA	-0.105
GCGTATTA	0.333
GTAGCGCA	-0.0234
TAGCGCAA	0.125
CGAGTTAG	0.094
GACAGGGA	-0.123

Sequence	PBM E-score
AAAGCGTT	-0.0425
CCCGTAGG	-0.194
GGCACCCA	-0.197
CTACACAA	0.0981
ATAGCCGG	-0.15
CCTCCATA	-0.116
CGCTCCCA	-0.361
CCTAACTA	0.0349
CAAGAGTC	-0.214
ACATTCTG	0.00438
GTTTGTAA	0.0307
CCCAGATC	-0.289
ATGGAAAC	-0.117
CACTGGGG	-0.239
CAGACAAA	0.0488
ATACCCGG	-0.166
GCATAACC	-0.169
GCGTCGTA	0.234
CCTGCAGA	-0.0607
CACAATGC	-0.131
AACCGCCC	-0.295
ATGAATCG	0.084
GAAAGCAC	-0.0183
AGCGGGAC	-0.235
GATTACGA	0.418

Sequence	PBM E-score
GCAGTGGA	0.00999
ACACTTAG	0.0751
GATGGAGC	-0.224
GACTGCCC	-0.215
AAGGCTAA	-0.074
AGTTCTTC	0.123
ATCTTTTG	0.0425
ACTACACG	0.205
CGCTTCAA	-0.153
CCTTTCGA	-0.206
GCGCTTTA	0.056
CACGGCTA	-0.00304
ACGAGAGC	-0.185
ACTAGCTA	0.0605
AGGGCTAA	-0.114
CTATGACC	0.212
TCGGACCA	-0.135
AACTATCG	0.0542
GCGAGATA	0.084
GACTAGGA	-0.0867
AGTTACTA	-0.0104
CGATCAAG	-0.068
CTGGCCTA	-0.213
GAGCAACA	-0.081
GCGATAAA	0.0435

Sequence	PBM E-score
CGGCGAGC	-0.144
ACTGGGAG	-0.283
TGACGGAA	0.356
AGAGCCCT	-0.328
AGGCACTG	-0.113
CGAAGACA	-0.164
CCTGCAAG	-0.318
GCAAATTA	0.095
CCACTGGC	-0.234
AACGCGCT	-0.0383
AAGTTGCC	-0.122
AAGGCTCA	-0.0238
ATGGCCCG	-0.194
CATTCGTA	0.317
AGGGGTCA	-0.172
TACTCTAA	0.123
ACATCATG	0.393
GCTGACAC	-0.053
CAGGCGAA	-0.0601
AGCGGGGG	-0.329
AATAGTAA	0.0315
ATGTTGGC	-0.0291
AAGTGACC	-0.141
CGAAGGCA	-0.106
CTCTTGGC	-0.206

Sequence	PBM E-score
CGCGTCAC	0.41
CCTTTGAC	-0.0504
CCAACTTA	0.0529
GAAGCTGC	-0.153
ATTTCAGG	0.0375
GCCATTGA	0.0343
AAGACTAA	0.0405
AATGTGAG	0.0989
GTTTAAAA	0.177
ATGTCACA	0.324
TGATGGAA	0.202
AGAATGCG	-0.0346
AGCAGCCG	-0.0558
ATCTCGCA	0.124
TCAGCCAA	-0.0544
CGACTGCC	-0.211
ATTAAACG	0.315
GACCTTCA	0.0344
ACAGCTCG	-0.153
CTAGTAAA	0.14
ACAGGCGA	-0.266
ACGAAAAC	0.284
CTGGCTTC	-0.277
CTATCGTC	0.0728
ATCCCAAC	0.0739

Sequence	PBM E-score
CAAAACTG	0.0652
AAAGTCGT	0.0966
AAGCGGCT	-0.163
AAGGACGT	0.324
TATGGGGA	-0.119
ACATGCCG	0.191
ATCATAGA	0.205
TAGCGCTA	0.0252
ATCGGTAC	0.0971
AATCGAGC	-0.0289
CTGACGGA	0.0532
ACACCAAG	-0.0382
CCAAGGGA	-0.279
AACTTCTG	-0.0671
CCGCGTAC	0.242
ACCGACGC	0.0727
CCTTCACA	-0.127
CACGGCGA	-0.139
ACTACTCC	-0.143
GATGTATA	0.261
TCCTGGAA	-0.192
CCCACACC	-0.06
GGTGTTCA	0.0658
AGGTGACC	-0.0978
AGCAGCAT	-0.127

Sequence	PBM E-score
CGAGCTGA	-0.0283
ACTTTTGC	0.185
GTACCTAC	-0.0089
CTCACCGA	-0.169
ACCTGTTA	0.0688
AGACTAGC	-0.205
CTAGCGTA	-0.0283
AAGTTGCT	0.0888
CGCACTGA	0.0222
ACAGGACA	-0.0397
GCTAAGGA	-0.231
ACCCGCCG	0.0253
TACGAATA	0.383
CGACAGCG	-0.102
GGACACTA	-0.125
AGTATCGA	0.0829
ACACCCAA	-0.066
AGGCATTG	-0.132
ACGATCTC	-0.0967
ATATCGAA	0.208
AAGAAAAC	-0.0179
ATACGGAC	-0.149
